Measurements: the supplement of paper PMC7826260
Some of the results follow. Viral Rep nickase domains cut single-stranded DNA in vitro at 3 µM enzyme and 37 °C for 1 h; the strands have 90 letters, of which the middle is given. Uncut reads are compared with the no-enzyme pool on a log2 scale; uncut sequences lie near 0, cut ones below; no hit call is given. Reads are scaled to the total; values above 0 arise when much of the pool is cut.

What was measured:
Experiment in all cases: uncleaved DNA left, log2 of reads against the no-enzyme library (log2 ratio); higher = less cleavage (more negative = more Rep cleavage of the k-mer); sequences stand for … in CTCGTCCG…ACCGGAGA
[1] = system: T1, Rep nickase domain of Muscovy duck circovirus
T1 sequence (protein, residues 1-111, tag omitted): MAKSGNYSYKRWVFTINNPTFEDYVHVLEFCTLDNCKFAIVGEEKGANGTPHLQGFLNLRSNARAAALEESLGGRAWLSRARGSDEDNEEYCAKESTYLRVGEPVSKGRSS
Protocol: (§1)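 A pool of 90-nt single-stranded DNAs with seven random bases just before the constant AC of the nick site (name = the seven bases) was cut by 3 µM recombinant His6-SUMO-tagged Rep nickase domain (300 nM DNA, 50 mM HEPES pH 8.0, 50 mM NaCl, 1 mM MnCl2, 1 h, 37 °C, three replicates). Uncut DNA was amplified and sequenced.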

[2] = system: T2, Rep nickase domain of banana bunchy top virus
T2 sequence (protein, residues 1-94, tag omitted): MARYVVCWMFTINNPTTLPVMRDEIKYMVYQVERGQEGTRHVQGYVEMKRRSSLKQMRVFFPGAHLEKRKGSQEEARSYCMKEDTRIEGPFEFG
Protocol: as §1

[3] = system: T3, Rep nickase domain of cabbage leaf curl virus
T3 sequence (protein, residues 1-116, tag omitted): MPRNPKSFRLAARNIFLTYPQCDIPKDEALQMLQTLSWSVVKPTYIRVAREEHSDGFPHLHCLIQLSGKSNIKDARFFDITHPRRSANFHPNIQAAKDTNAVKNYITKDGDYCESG
Protocol: as §1

[4] = system: T4, Rep nickase domain of chickpea chlorotic dwarf virus
T4 sequence (protein, residues 1-124, tag omitted): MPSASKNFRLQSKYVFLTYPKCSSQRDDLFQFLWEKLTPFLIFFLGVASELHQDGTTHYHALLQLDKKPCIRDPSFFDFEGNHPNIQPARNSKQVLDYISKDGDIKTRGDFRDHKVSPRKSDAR
Protocol: as §1

[5] = system: T5, Rep nickase domain of faba bean necrotic yellows virus
T5 sequence (protein, residues 1-98, tag omitted): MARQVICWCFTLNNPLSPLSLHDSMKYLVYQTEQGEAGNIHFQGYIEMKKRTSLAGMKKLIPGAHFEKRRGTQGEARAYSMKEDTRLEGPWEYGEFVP
Protocol: as §1

[6] = system: T6, Rep nickase domain of maize striate mosaic virus
T6 sequence (protein, residues 1-117, tag omitted): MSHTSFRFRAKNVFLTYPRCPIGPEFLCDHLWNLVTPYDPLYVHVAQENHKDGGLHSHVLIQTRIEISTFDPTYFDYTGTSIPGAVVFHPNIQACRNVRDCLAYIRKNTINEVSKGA
Protocol: as §1

[7] = system: T7, Rep nickase domain of porcine circovirus 2
T7 sequence (protein, residues 2-116, tag omitted): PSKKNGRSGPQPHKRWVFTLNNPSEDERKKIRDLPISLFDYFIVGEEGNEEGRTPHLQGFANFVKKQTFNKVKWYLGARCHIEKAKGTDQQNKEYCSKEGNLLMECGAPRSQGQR
Protocol: as §1

[8] = system: T8, Rep nickase domain of tomato golden mosaic virus
T8 sequence (protein, residues 1-124, tag omitted): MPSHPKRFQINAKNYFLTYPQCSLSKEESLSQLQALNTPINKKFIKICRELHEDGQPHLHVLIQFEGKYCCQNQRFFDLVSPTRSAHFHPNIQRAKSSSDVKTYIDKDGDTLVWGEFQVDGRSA
Protocol: as §1

[9] = system: T9, Rep nickase domain of tomato yellow leaf curl virus
T9 sequence (protein, residues 1-136, tag omitted): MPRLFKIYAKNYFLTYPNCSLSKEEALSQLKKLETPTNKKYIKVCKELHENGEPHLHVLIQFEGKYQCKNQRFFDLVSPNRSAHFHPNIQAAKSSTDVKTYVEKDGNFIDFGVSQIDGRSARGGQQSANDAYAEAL
Protocol: as §1

[10] = system: T10, Rep nickase domain of wheat dwarf virus
T10 sequence (protein, residues 1-137, tag omitted): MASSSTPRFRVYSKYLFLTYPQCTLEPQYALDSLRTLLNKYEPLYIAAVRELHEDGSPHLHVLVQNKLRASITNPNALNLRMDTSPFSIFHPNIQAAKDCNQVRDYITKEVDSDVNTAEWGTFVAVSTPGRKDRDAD
Protocol: as §1

Sequence | uncleaved DNA left (log2) [1] | uncleaved DNA left (log2) [2] | uncleaved DNA left (log2) [3] | uncleaved DNA left (log2) [4] | uncleaved DNA left (log2) [5] | uncleaved DNA left (log2) [6] | uncleaved DNA left (log2) [7] | uncleaved DNA left (log2) [8] | uncleaved DNA left (log2) [9] | uncleaved DNA left (log2) [10]
AAACAAT | 0.0468 | 0.215 | -0.274 | -2.13 | 0.1 | 0.107 | -0.16 | 0.218 | 0.0892 | -0.046
TTATCGG | -0.0563 | -0.0207 | 0.543 | 1.55 | -0.0197 | 2.07 | 0.071 | 0.061 | -0.132 | 0.0232
ATTATAG | -0.0383 | 0.0511 | -0.802 | -0.443 | 0.0305 | -1.24 | 0.143 | 0.0445 | 0.103 | -0.0418
GGTATAT | 0.135 | 0.265 | 0.869 | 1.87 | 0.0653 | 2.23 | 0.241 | 0.183 | 0.159 | 0.28
GGCAAGT | -0.00823 | 0.0109 | 0.497 | 1.25 | 0.0105 | 1.7 | 0.0641 | -0.0377 | 0.0397 | 0.0551
CCCGCTC | -0.0205 | 0.0328 | 0.136 | -0.262 | 0.0475 | -0.303 | 0.0963 | 0.0278 | 0.0634 | -0.0154
ATTGCCG | -0.0368 | -0.0119 | -0.635 | 0.844 | 0.051 | -0.173 | 0.0739 | -0.0648 | 0.0309 | -0.0359
ATCGTTA | 0.193 | 0.115 | -0.176 | -1.21 | 0.00269 | -0.578 | -0.162 | 0.0615 | 0.108 | -0.033
CTATATA | -0.217 | -0.134 | -0.085 | -1.65 | -0.0129 | -0.835 | -0.19 | -0.0398 | -0.0875 | -0.0139
TCAGTTT | -0.102 | -0.235 | -0.205 | -2.07 | -0.181 | -0.153 | -0.304 | -0.0852 | -0.306 | -0.238
TGCACGA | 0.0541 | 0.0378 | -0.0708 | -0.0197 | 0.1 | -0.692 | 0.119 | 0.00481 | 0.0317 | 0.129
GGTGGCT | -0.0163 | 0.0194 | 0.775 | 1.63 | -0.0961 | 2.15 | 0.152 | 0.0623 | 0.00768 | 0.1
AAGTATG | 0.136 | 0.0933 | 0.137 | 0.22 | 0.0801 | 0.0804 | -0.18 | 0.294 | 0.0354 | 0.113
AAAGGAT | -0.0486 | -0.0384 | 0.17 | 1.68 | -0.0288 | 1.78 | 0.191 | 0.0681 | -0.204 | 0.00505
GACGCAA | 0.107 | 0.187 | 0.111 | 0.463 | 0.0707 | 0.597 | 0.0318 | -0.0191 | 0.082 | 0.0443
GCAGGAT | 0.0525 | -0.164 | 0.31 | 1.52 | 0.0864 | 1.77 | 0.177 | 0.108 | -0.0145 | 0.00231
CCGTACG | -0.00634 | -0.0223 | -0.76 | -0.231 | -0.0584 | -0.889 | 0.0992 | -0.116 | 0.125 | -0.0406
GATCTGG | 0.182 | 0.0669 | 0.372 | 0.756 | 0.152 | 0.556 | 0.189 | 0.111 | 0.0198 | 0.0767
GATGACG | 0.0858 | 0.0748 | -0.458 | -0.285 | 0.0417 | -0.792 | 0.194 | 0.0426 | -0.0492 | 0.0678
ACGAAAT | 0.0582 | 0.151 | 0.0724 | -0.336 | 0.058 | -0.333 | 0.115 | 0.118 | 0.0651 | 0.17
AGTGCGT | 0.0284 | -0.0378 | -0.723 | -0.287 | 0.172 | -0.632 | -0.273 | 0.0333 | 0.147 | -0.1
ACAGCAA | 0.00446 | 0.0748 | -0.337 | -0.465 | 0.168 | -1.03 | 0.0515 | -0.00258 | -0.0046 | -0.0281
GAGAAGA | 0.0561 | 0.0328 | 0.336 | 0.724 | 0.0868 | 0.229 | 0.0705 | 0.0734 | 0.087 | 0.146
CAAAAAG | 0.0446 | 0.0248 | -0.794 | -0.643 | 0.18 | -1.05 | 0.203 | 0.129 | 0.183 | -0.107
ATCGTCC | 0.0875 | 0.0397 | -0.0915 | -0.256 | 0.0396 | -0.385 | -0.023 | -0.0116 | -0.129 | -0.0462
GACTCCA | 0.0851 | 0.139 | 0.278 | -1.03 | 0.13 | 0.891 | -1.44 | 0.134 | 0.167 | 0.309
AGAGGCG | 0.0422 | 0.0122 | -0.717 | -0.107 | 0.125 | -0.588 | 0.213 | 0.0515 | 0.0527 | -0.0149
TAATTGC | 0.0691 | -0.0775 | -2.39 | -2.48 | 0.104 | -2.08 | 0.188 | -0.217 | 0.0716 | -0.263
GTGCCGA | -0.0389 | 0.0527 | 0.103 | 0.502 | -0.137 | 0.202 | 0.0701 | -0.151 | -0.0364 | -0.0015
GTGACGT | -0.0386 | 0.0231 | 0.826 | 1.84 | -0.032 | 2.1 | 0.229 | -0.0484 | 0.0195 | 0.125
